Measured values published in PubChem BioAssay.
Inconclusive results, whose numbers are uncertain, are shown with a selection of clear calls. Calls of active or inactive are those of the source.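 Rule for the calls: active = thallium flux slope beyond 3 SD from same-plate DMSO control mean in most replicates, usually higher, sometimes lower; inconclusive = repeat tests gave conflicting results; inactive = no significant difference from controls in most replicates.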

These compounds were tested against Solute carrier family 12 member 5 (Homo sapiens) (UniProt Q9H2X9) (assay: modulation of KCC2 thallium flux in HEK cells – cell-based, ouabain, retest, confirmation (AID 1717;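 note: slope of initial-normalized fluorescence between seconds 10 and 20 after thallium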)). Settings: HEK293-KCC2, thallium flux FluoZin2 fluorescence, at 10 µM, bidirectional: low = inhibitor, high = activator.
UniProt Q9H2X9, sequence (Q9H2X9 whole entry, looked up): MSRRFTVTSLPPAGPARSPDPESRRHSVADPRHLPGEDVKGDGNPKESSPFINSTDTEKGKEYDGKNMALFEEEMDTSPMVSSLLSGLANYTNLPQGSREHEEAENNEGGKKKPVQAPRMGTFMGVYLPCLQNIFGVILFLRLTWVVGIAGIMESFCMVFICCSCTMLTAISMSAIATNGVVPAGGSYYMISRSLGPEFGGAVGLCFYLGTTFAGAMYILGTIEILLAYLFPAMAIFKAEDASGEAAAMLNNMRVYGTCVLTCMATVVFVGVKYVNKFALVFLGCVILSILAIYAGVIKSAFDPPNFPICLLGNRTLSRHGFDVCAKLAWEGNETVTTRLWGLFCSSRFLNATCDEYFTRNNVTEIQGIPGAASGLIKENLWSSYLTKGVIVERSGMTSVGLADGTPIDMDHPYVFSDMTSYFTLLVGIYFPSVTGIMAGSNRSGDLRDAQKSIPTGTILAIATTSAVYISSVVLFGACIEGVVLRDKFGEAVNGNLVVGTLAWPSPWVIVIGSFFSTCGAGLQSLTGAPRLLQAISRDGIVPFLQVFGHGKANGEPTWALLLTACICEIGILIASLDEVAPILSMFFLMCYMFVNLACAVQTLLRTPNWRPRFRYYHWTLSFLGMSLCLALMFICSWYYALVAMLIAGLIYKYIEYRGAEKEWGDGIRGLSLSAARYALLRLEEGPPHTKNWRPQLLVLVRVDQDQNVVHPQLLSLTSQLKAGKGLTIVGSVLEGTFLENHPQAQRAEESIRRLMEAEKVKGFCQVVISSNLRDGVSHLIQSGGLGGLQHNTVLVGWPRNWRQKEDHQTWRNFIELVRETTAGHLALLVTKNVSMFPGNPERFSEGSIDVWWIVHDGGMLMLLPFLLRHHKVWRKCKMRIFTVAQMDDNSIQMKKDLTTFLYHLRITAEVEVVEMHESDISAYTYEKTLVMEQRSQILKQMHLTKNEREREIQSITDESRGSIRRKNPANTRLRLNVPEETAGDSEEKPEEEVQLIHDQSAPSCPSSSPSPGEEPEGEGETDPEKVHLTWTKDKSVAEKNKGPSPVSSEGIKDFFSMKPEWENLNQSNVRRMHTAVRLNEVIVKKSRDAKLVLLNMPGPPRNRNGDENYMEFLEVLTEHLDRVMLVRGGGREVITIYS
`COc1ccc(S(=O)(=O)N(CCc2ccccc2)CC(=O)O)cc1Cl` was tested, and the raw Tl+ flux slope (below DMSO = inhibition, above = activation) was active: 0.0168.
`Cc1noc(/C=C/c2ccco2)c1S(=O)(=O)N1CCC(C(=O)N2CCc3ccccc3C2)CC1` was tested, and the raw Tl+ flux slope (below DMSO = inhibition, above = activation) was inconclusive: 0.0175.
In the case of `COc1ccc(Nc2cc(C)c3ccc(O)cc3n2)cc1`, the raw Tl+ flux slope (below DMSO = inhibition, above = activation) was inactive: 0.0232.
In the case of `COCCNC(=O)CN(c1cc(C(F)(F)F)ccc1Cl)S(C)(=O)=O`, the raw Tl+ flux slope (below DMSO = inhibition, above = activation) was inactive: 0.0185.
In the case of `CCCCC(NC(C)=O)c1nc2ccccc2n1CCCC` (stereo not drawn), the raw Tl+ flux slope (below DMSO = inhibition, above = activation) was inactive: 0.0188.
`C/C(N)=C(/C#N)C(=O)CSc1cc(C)c2cc(C)cc(C)c2n1` was tested, and the raw Tl+ flux slope (below DMSO = inhibition, above = activation) was inactive: 0.0175.
In the case of `Cc1cc([N+](=O)[O-])cc(/C=N/n2c(C)nc3ccccc3c2=O)c1O`, the raw Tl+ flux slope (below DMSO = inhibition, above = activation) was inconclusive: 0.0162.
`Cc1nonc1NC(=O)CSc1ccc(-c2ccccc2)nn1` was tested, and the raw Tl+ flux slope (below DMSO = inhibition, above = activation) was inconclusive: 0.0156.
In the case of `COc1ccc2nc(NNC(=O)C3COc4ccccc4O3)sc2c1` (stereo not drawn), the raw Tl+ flux slope (below DMSO = inhibition, above = activation) was inconclusive: 0.0259.
With `O=C(CSc1ccc(-c2ccccc2)nn1)c1ccccc1` the raw Tl+ flux slope (below DMSO = inhibition, above = activation) was inconclusive: 0.016.
`Cc1ccc(CCNC(=O)C2CCC(CNc3c(N4CCCC4)c(=O)c3=O)CC2)cc1` (stereo not drawn) was tested, and the raw Tl+ flux slope (below DMSO = inhibition, above = activation) was inactive: 0.0192.
In the case of `CCCCCSc1nnc(-c2cc(Br)ccc2N)c(=O)[nH]1`, the raw Tl+ flux slope (below DMSO = inhibition, above = activation) was inconclusive: 0.0169.
For `O=C(CCc1ccccc1)c1c(O)cc(O)cc1O`, the raw Tl+ flux slope (below DMSO = inhibition, above = activation) was inconclusive: 0.0173.
With `COc1cc(-c2c(C#N)c(=O)[nH]c3c2c(C)nn3-c2ccccc2)ccc1O` the raw Tl+ flux slope (below DMSO = inhibition, above = activation) was inconclusive: 0.0153.
`O=C(Nc1nc(-c2ccccc2)cs1)c1ccccc1NS(=O)(=O)c1ccc(F)cc1` was tested, and the raw Tl+ flux slope (below DMSO = inhibition, above = activation) was active: 0.00963.
For `CN(CC(=O)N1CC=C(c2ccccc2)CC1)S(=O)(=O)c1ccc2c(c1)c(=O)n(C)c(=O)n2C`, the raw Tl+ flux slope (below DMSO = inhibition, above = activation) was inactive: 0.0225.
`COc1ccc(CN(C(=O)c2ccc(-c3ccccc3)[nH]2)C(C(=O)NCC2CCCO2)c2ccc(C)o2)cc1` (stereo not drawn) was tested, and the raw Tl+ flux slope (below DMSO = inhibition, above = activation) was inconclusive: 0.0173.
For `CC1Cc2ccccc2N1C(=O)CSc1nnc2n1C(C)(C)Cc1ccccc1-2` (stereo not drawn), the raw Tl+ flux slope (below DMSO = inhibition, above = activation) was inconclusive: 0.0158.
With `NNc1nc2sc3c(c2c(=O)n1Cc1ccccc1)CCC3` the raw Tl+ flux slope (below DMSO = inhibition, above = activation) was inconclusive: 0.0239.
In the case of `C(=N\Nc1nc2ccccc2s1)/c1ccccn1`, the raw Tl+ flux slope (below DMSO = inhibition, above = activation) was inactive: 0.0202.
With `Cc1nn2c([nH]c(=O)c3ccccc32)c1C=O` the raw Tl+ flux slope (below DMSO = inhibition, above = activation) was inconclusive: 0.0244.
`Cn1c(C(=O)NCCCN2CCc3ccccc3C2)cc2c(=O)n(C)c3ccccc3c21` was tested, and the raw Tl+ flux slope (below DMSO = inhibition, above = activation) was inconclusive: 0.0169.
With `CCCCN(C)CCC(=O)Nc1ccc2c(c1)CCC2` the raw Tl+ flux slope (below DMSO = inhibition, above = activation) was inactive: 0.0185.
With `Cc1ccc(C(=O)N2CCCC2)cc1Br` the raw Tl+ flux slope (below DMSO = inhibition, above = activation) was inactive: 0.021.
`O=C1OC(c2cccs2)=N/C1=C\c1ccc(-c2ccccc2Cl)o1` was tested, and the raw Tl+ flux slope (below DMSO = inhibition, above = activation) was inconclusive: 0.0175.
For `O=C(NC(=S)NNC(=O)c1ccccc1O)c1ccco1`, the raw Tl+ flux slope (below DMSO = inhibition, above = activation) was inconclusive: 0.0248.
`Cc1ccc(S(=O)(=O)NC(=O)Nc2cc(C)ccc2F)cc1` was tested, and the raw Tl+ flux slope (below DMSO = inhibition, above = activation) was inactive: 0.0174.
For `CNS(=O)(=O)c1cccc2nsnc12`, the raw Tl+ flux slope (below DMSO = inhibition, above = activation) was inactive: 0.0214.
`O=C(Nc1ccc2nc3n(c(=O)c2c1)CCCC3)c1cc([N+](=O)[O-])ccc1F` was tested, and the raw Tl+ flux slope (below DMSO = inhibition, above = activation) was inactive: 0.018.
For `N#C/C(=C/c1ccc(N2CCCCCC2)o1)c1ccc(F)cc1`, the raw Tl+ flux slope (below DMSO = inhibition, above = activation) was active: 0.013.
With `N=C1C(c2nc3ccccc3s2)=C(O)CN1Cc1ccco1` the raw Tl+ flux slope (below DMSO = inhibition, above = activation) was inactive: 0.0179.
In the case of `O=C(Nc1cccnc1)c1ccc(COc2ccccc2Cl)o1`, the raw Tl+ flux slope (below DMSO = inhibition, above = activation) was inconclusive: 0.0144.
`Cc1nn(Cc2ccccc2)c(C)c1NC(=O)c1noc2c1CCc1ccccc1-2` was tested, and the raw Tl+ flux slope (below DMSO = inhibition, above = activation) was inconclusive: 0.019.
For `CC12CC(NC(=O)N1c1cccc(C(=O)NCc3ccccc3)c1)c1ccccc1O2` (stereo not drawn), the raw Tl+ flux slope (below DMSO = inhibition, above = activation) was inactive: 0.0195.
With `O=C(NCCCn1ncc2ccccc21)c1cc(COc2c(F)cccc2F)on1` the raw Tl+ flux slope (below DMSO = inhibition, above = activation) was active: 0.0125.
For `C=CCSc1n[nH]c2nc3c(c(=O)n12)C1(CCCC1)Cc1ccccc1-3`, the raw Tl+ flux slope (below DMSO = inhibition, above = activation) was inactive: 0.0186.
In the case of `Cc1cnc(NC(=O)COc2cccc3c2OC(C)(C)C3)s1`, the raw Tl+ flux slope (below DMSO = inhibition, above = activation) was inconclusive: 0.0266.
With `COc1ccc(CCNc2oc(COc3ccccc3)nc2C#N)cc1` the raw Tl+ flux slope (below DMSO = inhibition, above = activation) was inconclusive: 0.0176.
